T1: IL-10 receptor (two IL-10R1 and two IL-10R2 receptor chains) (UniProt Q61727 17-575; Q61190 20-349, limits assumed)
T1 sequence (looked up) 1: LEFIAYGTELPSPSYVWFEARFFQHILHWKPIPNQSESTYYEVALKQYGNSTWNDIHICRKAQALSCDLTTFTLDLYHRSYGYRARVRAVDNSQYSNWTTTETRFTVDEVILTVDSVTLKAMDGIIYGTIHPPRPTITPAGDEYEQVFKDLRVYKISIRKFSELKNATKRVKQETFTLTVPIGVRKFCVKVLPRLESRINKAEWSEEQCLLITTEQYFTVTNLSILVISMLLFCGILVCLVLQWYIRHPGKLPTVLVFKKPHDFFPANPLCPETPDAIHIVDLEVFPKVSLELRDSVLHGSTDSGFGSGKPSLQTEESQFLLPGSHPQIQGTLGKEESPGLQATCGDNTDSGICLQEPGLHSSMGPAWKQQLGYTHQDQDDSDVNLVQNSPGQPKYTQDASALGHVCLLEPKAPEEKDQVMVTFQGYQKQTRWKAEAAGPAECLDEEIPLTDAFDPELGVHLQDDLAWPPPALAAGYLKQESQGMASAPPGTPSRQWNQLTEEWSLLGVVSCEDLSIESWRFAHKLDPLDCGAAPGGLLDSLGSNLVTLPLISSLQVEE
T1 sequence (looked up) 2: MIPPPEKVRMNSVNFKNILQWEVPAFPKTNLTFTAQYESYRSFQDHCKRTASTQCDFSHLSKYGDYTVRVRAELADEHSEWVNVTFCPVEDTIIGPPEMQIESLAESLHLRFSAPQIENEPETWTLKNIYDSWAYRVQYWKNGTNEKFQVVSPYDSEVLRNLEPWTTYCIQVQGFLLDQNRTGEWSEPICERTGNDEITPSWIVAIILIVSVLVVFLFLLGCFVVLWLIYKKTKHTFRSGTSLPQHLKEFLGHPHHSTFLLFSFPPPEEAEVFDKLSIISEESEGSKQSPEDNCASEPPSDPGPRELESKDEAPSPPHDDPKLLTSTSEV

T2: IL-10R2 receptor chain (UniProt Q61190 20-349, limits assumed)
T2 sequence (looked up): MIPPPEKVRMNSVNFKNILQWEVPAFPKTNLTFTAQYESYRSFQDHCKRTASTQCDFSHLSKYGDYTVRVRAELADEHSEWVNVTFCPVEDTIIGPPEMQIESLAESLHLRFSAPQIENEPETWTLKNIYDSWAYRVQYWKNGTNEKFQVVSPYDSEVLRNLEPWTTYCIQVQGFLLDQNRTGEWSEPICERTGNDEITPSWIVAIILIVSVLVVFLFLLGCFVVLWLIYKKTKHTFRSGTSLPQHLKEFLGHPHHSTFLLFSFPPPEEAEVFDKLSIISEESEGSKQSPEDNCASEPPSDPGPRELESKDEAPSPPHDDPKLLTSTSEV


target: T1, IL-10 receptor (two IL-10R1 and two …); test: cell-based or functional assay

Binder | MC/9 (pM): EC50, proliferation of the mouse mast cell line MC/9 [pM] | PBMC + LPS (pM): IC50, inhibition of TNFα production in LPS stimulated C57BL/6 mouse PBMCs [pM]
I87A:linker:I87A (vIL10 mutant) (Fc fusion) SPGQGTQSENSCTHFPGNLPNMLRDLRDAFSRVKTFFQMKDQLDNLLLKESLLEDFKGYLGCQALSEMIQFYLEEVMPQAENQDPDAKAHVNSLGENLKTLRLRLRRCHRFLPCENKSKAVEQVKNAFNKLQEKGIYKAMSEFDIFINYIEAYMTMKIRNGGSGGGGSGGSPGQGTQSENSCTHFPGNLPNMLRDLRDAFSRVKTFFQMKDQLDNLLLKESLLEDFKGYLGCQALSEMIQFYLEEVMPQAENQDPDAKAHVNSLGENLKTLRLRLRRCHRFLPCENKSKAVEQVKNAFNKLQEKGIYKAMSEFDIFINYIEAYMTMKIRNGGGGSGGGGSRTVAAPSVFIFPPSDEQLKSGTASVVCLLNNFYPREAKVQWKVDNALQSGNSQESVTEQDSKDSTYSLSSTLTLSKADYEKHKVYACEVTHQGLSSPVTKSFNRGECGGGGSGGGGSGGGGSGGGGSASTKGPSVFPLAPSSKSTSGGTAALGCLVKDYFPEPVTVSWNSGALTSGVHTFPAVLQSSGLYSLSSVVTVPSSSLGTQTYICNVNHKPSNTKVDKRV[human IgG1 Fc cut from this listing] | 1780 | 0.38
I87A:linker:wtIL-10 (vIL10 mutant) (Fc fusion) SPGQGTQSENSCTHFPGNLPNMLRDLRDAFSRVKTFFQMKDQLDNLLLKESLLEDFKGYLGCQALSEMIQFYLEEVMPQAENQDPDAKAHVNSLGENLKTLRLRLRRCHRFLPCENKSKAVEQVKNAFNKLQEKGIYKAMSEFDIFINYIEAYMTMKIRNGGSGGGGSGGSPGQGTQSENSCTHFPGNLPNMLRDLRDAFSRVKTFFQMKDQLDNLLLKESLLEDFKGYLGCQALSEMIQFYLEEVMPQAENQDPDIKAHVNSLGENLKTLRLRLRRCHRFLPCENKSKAVEQVKNAFNKLQEKGIYKAMSEFDIFINYIEAYMTMKIRNGGGGSGGGGSRTVAAPSVFIFPPSDEQLKSGTASVVCLLNNFYPREAKVQWKVDNALQSGNSQESVTEQDSKDSTYSLSSTLTLSKADYEKHKVYACEVTHQGLSSPVTKSFNRGECGGGGSGGGGSGGGGSGGGGSASTKGPSVFPLAPSSKSTSGGTAALGCLVKDYFPEPVTVSWNSGALTSGVHTFPAVLQSSGLYSLSSVVTVPSSSLGTQTYICNVNHKPSNTKVDKRV[human IgG1 Fc cut from this listing] | 107 | 0.03
wtIL-10:linker:I87A (vIL10 mutant) (Fc fusion) SPGQGTQSENSCTHFPGNLPNMLRDLRDAFSRVKTFFQMKDQLDNLLLKESLLEDFKGYLGCQALSEMIQFYLEEVMPQAENQDPDIKAHVNSLGENLKTLRLRLRRCHRFLPCENKSKAVEQVKNAFNKLQEKGIYKAMSEFDIFINYIEAYMTMKIRNGGSGGGGSGGSPGQGTQSENSCTHFPGNLPNMLRDLRDAFSRVKTFFQMKDQLDNLLLKESLLEDFKGYLGCQALSEMIQFYLEEVMPQAENQDPDAKAHVNSLGENLKTLRLRLRRCHRFLPCENKSKAVEQVKNAFNKLQEKGIYKAMSEFDIFINYIEAYMTMKIRNGGGGSGGGGSRTVAAPSVFIFPPSDEQLKSGTASVVCLLNNFYPREAKVQWKVDNALQSGNSQESVTEQDSKDSTYSLSSTLTLSKADYEKHKVYACEVTHQGLSSPVTKSFNRGECGGGGSGGGGSGGGGSGGGGSASTKGPSVFPLAPSSKSTSGGTAALGCLVKDYFPEPVTVSWNSGALTSGVHTFPAVLQSSGLYSLSSVVTVPSSSLGTQTYICNVNHKPSNTKVDKRV[human IgG1 Fc cut from this listing] | 346 | 0.18

target: T2, IL-10R2 receptor chain; test: cell-based or functional assay

Binder | MC/9 (pM): EC50, proliferation of the mouse mast cell line MC/9 [pM] | PBMC + LPS (pM): IC50, inhibition of TNFα production in LPS stimulated C57BL/6 mouse PBMCs [pM]
M22A:linker:wtIL-10 (R2 mutant) (Fc fusion) SPGQGTQSENSCTHFPGNLPNALRDLRDAFSRVKTFFQMKDQLDNLLLKESLLEDFKGYLGCQALSEMIQFYLEEVMPQAENQDPDIKAHVNSLGENLKTLRLRLRRCHRFLPCENKSKAVEQVKNAFNKLQEKGIYKAMSEFDIFINYIEAYMTMKIRNGGSGGGGSGGSPGQGTQSENSCTHFPGNLPNMLRDLRDAFSRVKTFFQMKDQLDNLLLKESLLEDFKGYLGCQALSEMIQFYLEEVMPQAENQDPDIKAHVNSLGENLKTLRLRLRRCHRFLPCENKSKAVEQVKNAFNKLQEKGIYKAMSEFDIFINYIEAYMTMKIRNGGGGSGGGGSRTVAAPSVFIFPPSDEQLKSGTASVVCLLNNFYPREAKVQWKVDNALQSGNSQESVTEQDSKDSTYSLSSTLTLSKADYEKHKVYACEVTHQGLSSPVTKSFNRGECGGGGSGGGGSGGGGSGGGGSASTKGPSVFPLAPSSKSTSGGTAALGCLVKDYFPEPVTVSWNSGALTSGVHTFPAVLQSSGLYSLSSVVTVPSSSLGTQTYICNVNHKPSNTKVDKRV[human IgG1 Fc cut from this listing] | 47 | 0.077
wtIL-10:linker:M22A (R2 mutant) (Fc fusion) SPGQGTQSENSCTHFPGNLPNMLRDLRDAFSRVKTFFQMKDQLDNLLLKESLLEDFKGYLGCQALSEMIQFYLEEVMPQAENQDPDIKAHVNSLGENLKTLRLRLRRCHRFLPCENKSKAVEQVKNAFNKLQEKGIYKAMSEFDIFINYIEAYMTMKIRNGGSGGGGSGGSPGQGTQSENSCTHFPGNLPNALRDLRDAFSRVKTFFQMKDQLDNLLLKESLLEDFKGYLGCQALSEMIQFYLEEVMPQAENQDPDIKAHVNSLGENLKTLRLRLRRCHRFLPCENKSKAVEQVKNAFNKLQEKGIYKAMSEFDIFINYIEAYMTMKIRNGGGGSGGGGSRTVAAPSVFIFPPSDEQLKSGTASVVCLLNNFYPREAKVQWKVDNALQSGNSQESVTEQDSKDSTYSLSSTLTLSKADYEKHKVYACEVTHQGLSSPVTKSFNRGECGGGGSGGGGSGGGGSGGGGSASTKGPSVFPLAPSSKSTSGGTAALGCLVKDYFPEPVTVSWNSGALTSGVHTFPAVLQSSGLYSLSSVVTVPSSSLGTQTYICNVNHKPSNTKVDKRV[human IgG1 Fc cut from this listing] | 38 | 0.045
M22A:linker:M22A (R2 mutant) (Fc fusion) SPGQGTQSENSCTHFPGNLPNALRDLRDAFSRVKTFFQMKDQLDNLLLKESLLEDFKGYLGCQALSEMIQFYLEEVMPQAENQDPDIKAHVNSLGENLKTLRLRLRRCHRFLPCENKSKAVEQVKNAFNKLQEKGIYKAMSEFDIFINYIEAYMTMKIRNGGSGGGGSGGSPGQGTQSENSCTHFPGNLPNALRDLRDAFSRVKTFFQMKDQLDNLLLKESLLEDFKGYLGCQALSEMIQFYLEEVMPQAENQDPDIKAHVNSLGENLKTLRLRLRRCHRFLPCENKSKAVEQVKNAFNKLQEKGIYKAMSEFDIFINYIEAYMTMKIRNGGGGSGGGGSRTVAAPSVFIFPPSDEQLKSGTASVVCLLNNFYPREAKVQWKVDNALQSGNSQESVTEQDSKDSTYSLSSTLTLSKADYEKHKVYACEVTHQGLSSPVTKSFNRGECGGGGSGGGGSGGGGSGGGGSASTKGPSVFPLAPSSKSTSGGTAALGCLVKDYFPEPVTVSWNSGALTSGVHTFPAVLQSSGLYSLSSVVTVPSSSLGTQTYICNVNHKPSNTKVDKRV[human IgG1 Fc cut from this listing] | 541 | 0.73
